Measurements published in paper PMC10338493, “Deciphering intercellular signaling complexes by interaction-guided chemical proteomics” (Nature Communications, 2023).

Target: T1, s-tagged PLAU (UniProt P00749)
T1 construct: also called recombinant PLAU
Experiment: ELISA; solid-phase binding assay: plates coated with s-tagged PLAU at 1.5 ng/μL in PBS overnight at 4 °C, blocked with 5% NFDM in PBST, serial dilutions of NRP1-Fc in 5% BSA for 2 h at RT, anti-human IgG Fc-HRP; uncoated wells as controls
Conditions: both partners purified

B1: Fc-tagged NRP1 ectodomain (Fc fusion)
chain: [not shown - about 600 residues]TYGFNCEFGWGSHKTFCHWEHDNHVQLKWSVLTSKTGPIQDHTGDGNFIYSQADENQKGKVARLVSPVVYSQNSAHCMTFWYHMSGSHVGTLRVKLRYQKPEEYDQLVWMAIGHQGDHWKEGRVLLHKSLKLYQVIFEGEIGKGNLGGIAVDDISINNHISQEDCAKPADLDKKNPEIKIDETGSTPGYEGEGEGDKNISRKPGNVLKTLDP
notes: also called NRP1-Fc; source: bought: Sino Biological, 10011-H02H
  Kd: 9.5 nM
